Data published in the supplement of paper PMC11417369.
± gives the standard deviation of the averaged measurements. The list shows a part of the results.

test system: PfAP2-LT AP2 domain (GST-tagged); test: gcPBM binding intensity (ln(normalized median fluorescence intensity)); higher = stronger DNA binding
Outline: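 Binding intensity values are the highest Masliner-normalised natural-log median intensity among replicate spots of either probe orientation. The binding step lasted 1 h in 1× PBS with 1% milk, 0.2 mg/ml BSA, 0.5% salmon testes DNA and 0.03% Triton X-100, using GST-tagged P. falciparum DNA-binding domains expressed in E. coli on an Agilent 4 × 180k array of primer-extended double-stranded 36-bp intergenic genomic probes plus negative controls. Alexa488 anti-GST antibody and a 488 nm scan detected bound protein.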

Sequence | gcPBM binding intensity (ln)
ACAGATATACATAAAAAAAAAATAATTTTACATATA [CACACA_negctrl_site929] | 8.49 ± 0.57
TTCCATATAATTACATGTACACATTTTGAATAATAT [XGTACX_site3692] | 8.96 ± 0.46
AATAATAATAAATATACACACATCATACAATTAACA [CACACA_site3679] | 9.2 ± 0.41
TATTTTTTTCTTACTACACACATATAGATGCTTTCC [CACACA_site7825] | 8.96 ± 0.47
GGTCTTTTCAACACACGTACATAAAAATATTATACA [XGTACX_site5360] | 8.86 ± 0.23
TATATATTGATATGCACACCTATGTATTGATGTATA [CACACA_site1073] | 9.11 ± 0.35
TAAACATATAGAGGGGTGCAAAGAATTGTAAAATTT | 8.79 ± 0.61
TATATATATAATTAAAGTACATATAACCACAAAAAT [XGTACX_site7289] | 8.96 ± 0.36
ACATAAATTTAATACACACACAAAGAAAAAAAAAAA [CACACA_site4088] | 9.46 ± 0.55
TAATATAATATATATACACACAAGAAATACAAAACG [CACACA_site1378] | 9.36 ± 0.4
ATATTATTATAATATACATATATATATATAATATAT [CACACA_negctrl_site480] | 8.7 ± 0.33
TATTAATCTAATTCATAAAAAATGATCTATTTTGTT [CACACA_negctrl_site1035] | 8.37 ± 0.47
AAAATGAACAGACACACACACATATTTATATTTATA [CACACA_site7182] | 9.68 ± 0.38
ACCTAAAAGGTATAATATATAAATAAAAAAAAAAAT [CACACA_negctrl_site134] | 8.84 ± 0.54
AACATTTGATAAGATACACACACAAGGAAAAAAATA [CACACA_site8004] | 9.43 ± 0.44
TAGAATAATCTATAAACACACAAACACAACAAAAGA [CACACA_site7861] | 9.31 ± 0.47
TTTTTTTCTTTATTAGCACACATAATATTATATATG [CACACA_site8841] | 8.88 ± 0.45
TATATCATTATATAAACACACAATATGTTTTTTATA [CACACA_site3781] | 8.56 ± 0.45
TATTATTTTTTAAATTGTACAATAAATTATAAAAGG [XGTACX_site1162] | 8.23 ± 0.38
GAAAAGCAGATAAATGTGCACATATATGTTTGTATA | 9.11 ± 0.52
TATAGGTATATATAAGTGCAATATATATGTATATAC [GTGCAC_site9427] | 8.95 ± 0.45
ACATAAAATTGTTAAAAAATTGTATAAATAATACAT [XGTACX_negctrl_site557] | 8.54 ± 0.42
CAGCTCTTAAAAATTACACACATATACTCATATATA [CACACA_site5757] | 8.87 ± 0.35

Sequence | gcPBM binding intensity (ln)
AGATATTTTATAATTACACACATGAGGTTATTTGAA [CACACA_site1999] | 8.88 ± 0.32
TTATAAAAATAATATCGTACAAATGACATAGATGAA [XGTACX_site2570] | 8.78 ± 0.45
CATATACATAAACACACACACACATAAATAAATATA [CACACA_site4864] | 10 ± 0.13
CACATACCCATACAAACACACATTATATATATATAT [CACACA_site4965] | 9.56 ± 0.33
AAAAAAAAAAAAAAAACACACATAAATAGCTCAAAT [CACACA_site3973] | 8.89 ± 0.52
GATATATAAATAGATACACACATACATACATACATA [CACACA_site6260] | 9.38 ± 0.22
ATATCGTGTGCATTAACACACATTTATTTGAATAAA [CACACA_site7162] | 9.12 ± 0.35
TACGATTAAAAAAAATGTACAGATTTTTATAGAATA [XGTACX_site6561] | 8.44 ± 0.47
ATATTACCCATATATGCACACATTGTAGTTATTTAT [CACACA_site2636] | 9.39 ± 0.37
ATATAATTACCATATGGTACACACATATATATATGT [XGTACX_site7393] | 9.63 ± 0.31
TTTTGTAGCAAAAAATAGGAAAAAAAAAAATTAAAT [GTGCAC_negctrl_site8] | 8.44 ± 0.49
TTAAGATACAAAAAAGTGCATATTTTTTAACAAAAA | 8.54 ± 0.53
TTAAGATATATAAAGAGTACACATAAGAGTAATGCT [XGTACX_site58] | 8.85 ± 0.44
TATAATACATTATATTGTACTATATTATAATAAATT [XGTACX_site5934] | 8.55 ± 0.35
GACAAATTATTGTGTACACAATATTATTATATATAC [CACACA_site6020] | 9.02 ± 0.37
ACAAATAAAAATATTACACACACTATTCTAGTGATA [CACACA_site6812] | 8.93 ± 0.33
TAAATATATATAATTACACACTTTTCTATAATATGA [CACACA_site711] | 8.57 ± 0.42
CTTATGTTTTTTAAGTGTACATATTATACGTATTAT [XGTACX_site1176] | 9.02 ± 0.42
AATATAAACATAGATAGATAAATAAATAAATAAACA [GTGCAC_negctrl_site567] | 8.92 ± 0.44
AATAATTGTTAAAGGTGTACAATACGTATGTAAGAA [XGTACX_site1328] | 9.31 ± 0.54
AACAGATATATATGTAGTACATGTTCTAGATATTTT [XGTACX_site1208] | 8.9 ± 0.42
ATGTAGACATAATGGGGTACAAAAAAAAAAAAAAAA [XGTACX_site881] | 8.71 ± 0.58
AAAAAAAATAAAAATAAAAATAAAAATAAAAATAAA [GTGCAC_negctrl_site437] | 8.23 ± 0.66

Sequence | gcPBM binding intensity (ln)
TATCATTTTGTATATAGTACATATATAAAATCGTTA [XGTACX_site3875] | 8.48 ± 0.42
ATAAAAATAACATATAAACACACATATATATATATA [CACACA_site9267] | 9.565 ± 0.078
CAAGCACCCAGACACACACACACACCCACACCCACA [CACACA_site369] | 10.1 ± 0.47
GGAATATTTATACATACACACATATATTTATTTATA [CACACA_site6883] | 8.91 ± 0.38
AGTCATTAAATATAATGTACATGGAAAAACAGCTGA [XGTACX_site7944] | 8.97 ± 0.4
AAAAAAATCACATAATATACTTTATTTTATTTTGTA [GTGCAC_negctrl_site562] | 8.41 ± 0.59
ACAAAGAACTATAATACACACAAGAATATATTGGAT [CACACA_site7771] | 9.3 ± 0.39
TTATAAGATTTATGTACACACATATACACCCCTCTA [CACACA_site4562] | 9.26 ± 0.33
GTTATAGAAGCATTCACACACACACCGACATACACA [CACACA_site4914] | 9.87 ± 0.26
ATATATATATAAATATAAATATATATATATATATAT [CACACA_negctrl_site1685] | 9.02 ± 0.23
AATAATTAAATATATTTATAACAGGAAAATATTTAT [XGTACX_negctrl_site175] | 8.52 ± 0.41
ATAAATTATATTCAAGTGCATGTAACTTATTATTAT | 8.73 ± 0.42
AAAAAAAAAAATTCCAGTACACACAATAATACTAAA [XGTACX_site5930] | 8.98 ± 0.35
TAAATAATCATAGTTCTACACACCTATATTGCAAAA [CACACA_site8190] | 8.74 ± 0.36
ATATATATAATATGATGTACTATTTTGATAAAAAAT [XGTACX_site3975] | 8.62 ± 0.46
AATATATTGCACCATTGGACCTGAATAATTCTTCCA [CACACA_negctrl_site1071] | 8.81 ± 0.38
GTAAGAAACGGACACACACACATATATATATATATA [CACACA_site4593] | 10.39 ± 0.05
TAGTAAGAATTACTGTGTACTAAAATATTAAAAAGT [XGTACX_site2578] | 8.82 ± 0.57
AAATAGTCTTCTCTTGCATGTAACAAATATATATAT [TGCATGCA_site428] | 8.74 ± 0.32
AATAAAAACAAACAAAAAAACAAATAAATAAATAAA [CACACA_negctrl_site483] | 8.79 ± 0.45
ACATATAAGTTATATACACACAATAATATGTAAATA [CACACA_site6766] | 9.12 ± 0.38
ATATTTTTTATAAAATGTACTTATTATTAGAATATA [XGTACX_site2460] | 8.33 ± 0.38
TACAAAATATGGTAATAAAGTAGTTACATGAATTGG [XGTACX_negctrl_site522] | 8.8 ± 0.42

Sequence | gcPBM binding intensity (ln)
TATTATAATATATTTGTGCACATAATACCTCCGCTA [GTGCAC_site9570] | 8.97 ± 0.5
AATATATACATATGTATGCACTTTTTAATTATTTTT | 8.73 ± 0.57
GTTATAGAAGCATTCACACACACACGGACATACACA [CACACA_site6801] | 10 ± 0.3
TTTTTTTATAAAAATGAACACACACCGATATATATA [CACACA_site9161] | 8.95 ± 0.3
ATTGATCTTTATTGTTGTACATTAAACGTTAATTTT [XGTACX_site1788] | 8.95 ± 0.39
TACCTATAAAAGTACACACACACACGGATATAAATA [CACACA_site6569] | 9.95 ± 0.19
ACTATAAATATATACACATGCGCACACACAAGTGGG [TGCATGCA_site432] | 9.54 ± 0.25
ATGGAAATTTTATCATGTACATATACCGTTGAATAA [XGTACX_site5420] | 8.68 ± 0.35
AATAAAAAAATTAAAATTAAAAAATTAAAACTTAAA [CACACA_negctrl_site987] | 8.2 ± 0.64
TATTATATAATTTTAACACACAAGAATATAAACTTT [CACACA_site1363] | 8.62 ± 0.43
TAACAAAATGTAAATAAACACACATATATATATATA [CACACA_site8352] | 9.72 ± 0.25
AACATTCTATGTTGCACACAAAGAGAAAAATTTATT [CACACA_site3995] | 8.98 ± 0.46
AAAAAGAAAAAACTTACACACATATATACCCCCATG [CACACA_site4463] | 9.71 ± 0.014
TGAAGGAATACAGCTCGTACATGTGTAAAGAGATAA [XGTACX_site500] | 9.09 ± 0.49
TAATTTAAATGATGTAGTACATATAAATATATCTAA [XGTACX_site262] | 8.48 ± 0.38
TGAATTAACAAATAGACACACATATATATATATATA [CACACA_site3195] | 9.9 ± 0.11
TTAAAAAATATATGCGTGCACTAATATTTCATATGC | 8.89 ± 0.33
ACCATTTGTACTTACGCACACATAAAATATATATAT [CACACA_site1545] | 9.2 ± 0.34
TACTATTTTTATAATACACACATATATTTGTGATAT [CACACA_site1775] | 9 ± 0.37
TGTGGCCCTGCGAGGTGGTCATCATGAATACGAAAA [XGTACX_site1526] | 8.63 ± 0.52
